Test results taken from PubChem BioAssay (Tox21).
“And” between values parts separate entries of the source, which are not always exact repeats. Equal values may be shown once. Inconclusive results, whose numbers are uncertain, are shown with a selection of clear calls. Where the call is inconclusive, the potency comes from a doubtful curve fit. Where a structure was tested more than once in an assay, its records may differ in their call. The source made the active and inactive calls. Unless noted, calls follow the shape of the full dose curve.
% is scaled to controls: 0 for no effect and ±100 for the full control effect; potency is read from the fitted curve at half-maximal effect; tags tell the direction and shape of the fitted curve.

Assay: qHTS assay for small molecule agonists of the antioxidant response element (ARE) signaling pathway (AID 743202; active = well fitted activation curve with a large enough effect in the signal ratio in the repeat runs, not every such curve was filed as active; inconclusive = weak or mixed curves, or effect the other way; inactive = no such curve, though single readings can be large or run the other way; the % refers to the signal ratio)
Settings: HepG2 ARE-bla reporter, beta-lactamase FRET, 16 h; activation: at 73.3 µM (top of the series) unless noted
Summary of the method: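 Beta-lactamase reporter activity, read as fluorescence intensity, reflects ARE/Nrf2 pathway induction in HepG2 cells after 16 h compound exposure at 37 C; substrate loading was 2 h at room temperature.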
In the case of `Cc1nc(C)c(C)nc1C`, the activation is reported as inconclusive: -2.98%.
For `c1ccc(CCNc2nc(-c3ccccc3)cs2)cc1`, the Potency was inconclusive: 21.1 µM [rising, partial curve].
With `CC(C)=CCCC(C)CCOC=O` (centres undefined) the Potency was inconclusive: 43.3 µM [falling, partial curve].
In the case of `NCCCN(CCO)CCO`, the activation is reported as inconclusive: 8.39%.
With `CN(C)CCOC(c1ccccc1)c1ccccc1` the activation was inconclusive: -15.9%.
For `CN(C)CCOCCN(C)C`, the activation was inconclusive: -19.2%.
For `Cn1cnc2c(=O)[nH]c(N)nc21`, the “activation” value was inactive: -13.2%.
With `CCCCCCCCOCCCN` the Potency was inconclusive: 24.3 µM [falling, partial curve, poor fit].
With `CC(CC(C#N)(c1ccccc1)C(C)C)N(C)C` (centres undefined) the “activation” value was inactive: -7.52%.
With `CCN(CC)C(=O)Nc1ccc(OCC(O)CNC(C)(C)C)c(C(C)=O)c1` (centres undefined) the “activation” value was inactive: 10.3%.
For `CC(C)c1ccc2c(C(C)C)cc(C(C)C)c(S(=O)(=O)O)c2c1`, the Potency was inconclusive: 63.2 µM.
With `CCCCCCOc1ccc(N)cc1` the “activation” value was inactive: 6.33%.
With `C=CCc1ccc(O)c(OC)c1` the Potency was inconclusive: 76.5 µM [rising, partial curve, poor fit] and the activation was inconclusive: 20.4%.
With `NC(N)=NC(=O)Cc1c(Cl)cccc1Cl` the activation was inconclusive: -39.4%.
In the case of `Cc1ccc(N)cc1[N+](=O)[O-]`, the “activation” value is reported as inactive: 0.103% [at 94.8 µM].
For `O=C(O)Cc1c[nH]c2ccccc12`, the activation was inconclusive: 16.4%.
In the case of `Cc1nc2sccn2c(=O)c1CCN1CCC(=C(c2ccc(F)cc2)c2ccc(F)cc2)CC1`, the Potency is reported as inconclusive: 10.6 µM.
With `ICCc1ccccc1` the “activation” value was inactive: 1.55%.
In the case of `CCC(=O)OCCOc1ccccc1`, the activation is reported as inconclusive: 0.973%.
With `CCC(C)N` (centres undefined) the “activation” value was inactive: -4.6%.
For `N=c1nc(N2CCCCC2)cc(N)n1O`, the “activation” value was inactive: 14.5%.
For `Cn1cc[nH]c1=S`, the Potency was inconclusive: 27.3 µM and the activation was inconclusive: 1.07%.
With `O=C1O[C@H]([C@@H](O)CO)C(O)=C1O` the Potency was inconclusive: 8.41 µM [falling, partial curve, poor fit] and the activation was inconclusive: 18.8%.
With `CC(O)(P(=O)(O)O)P(=O)(O)O` the Potency was inconclusive: 6.11 µM [falling, partial curve, poor fit] and the activation was inconclusive: -11.6% [at 94.8 µM].
In the case of `Cc1ccccc1N=O`, the activation is reported as inconclusive: 30.2% [at 94.8 µM].
With `Cl/C(=C\n1cncn1)c1ccc(Cl)cc1Cl` the Potency was inconclusive: 6.68 µM [rising, single point].
For `CC1=CCC(C(C)C)C=C1` (centres undefined), the Potency was inconclusive: 54.5 µM [rising, partial curve].
With `CCCN1C=CN(C)C1` the activation was inconclusive: 4.58% [at 94.8 µM].
With `O=C(O)[C@H](O)[C@@H](O)[C@H](O)[C@H](O)CO` the Potency was “inactive”.
In the case of `CC(=O)NS(=O)(=O)c1ccc(N)cc1`, the activation is reported as inconclusive: -11.7%.
With `CC/C=C\CCOC(C)OCC` (centres undefined) the activation was inconclusive: 12.7%.
For `CN1C(=O)CC(C)(c2ccccc2)C1=O` (centres undefined), the “activation” value was inactive: -3.48%.
In the case of `CC(C)C1OCCN1CCOC(=O)NCCCCCCNC(=O)OCCN1CCOC1C(C)C` (centres undefined), the “activation” value is reported as inactive: 2.75%.
In the case of `F[B-](F)(F)F`, the Potency is reported as active: 27.6 µM and the activation is reported as inconclusive: -14.4%.
In the case of `O=C(C1CCCCC1)N1CC(=O)N2CCc3ccccc3C2C1` (centres undefined), the activation is reported as inconclusive: 18.1% and inconclusive: 20.8%.
With `CCCCCCCCCCCCCCCCOS(=O)(=O)O` the activation was inconclusive: 2.27%.
In the case of `CCCCNC(=O)NS(=O)(=O)c1ccc(N)cc1`, the activation is reported as inconclusive: 6.77%.
With `FC(F)(F)C(Cl)Br` (centres undefined) the Potency was “inactive”.
For `O=C(c1ccc(O)cc1)c1ccc(O)c(O)c1O`, the “activation” value was inactive: 20.4% [at 94.8 µM].

Same assay, conditions: HepG2 ARE-bla reporter, beta-lactamase FRET, 16 h; at 73.3 µM (top of the series)
With `CN(C)CCOC(c1ccccc1)c1ccccc1` the activation was inactive: -8.69%.
In the case of `O=C(O)Cc1c[nH]c2ccccc12`, the activation is reported as inactive: 0.296%.
With `CC(=O)NS(=O)(=O)c1ccc(N)cc1` the activation was inactive: -0.4% and inactive: -2.48%.
With `O=C(C1CCCCC1)N1CC(=O)N2CCc3ccccc3C2C1` (centres undefined) the activation was inactive: -0.722%.

Same assay, conditions: HepG2 ARE-bla reporter, beta-lactamase FRET, 16 h; at 94.8 µM (top of the series)
With `CN(C)CCOC(c1ccccc1)c1ccccc1` the activation was inactive: -9%.
In the case of `CN(C)CCOCCN(C)C`, the activation is reported as inactive: -3.27%.
In the case of `CCCN1C=CN(C)C1`, the activation is reported as inactive: 2.87%.

Assay: qHTS assay for small molecule agonists of the antioxidant response element (ARE) signaling pathway - cell viability counter screen (AID 743203); also: nearly all actives have a fitted effect of over 55% in size
Settings: ARE-bla HepG2 viability, CellTiter-Glo luminescence, 16 h; viability change, negative = cytotoxic: at 73.3 µM (top of the series)
Summary of the method: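 Cytotoxicity was tested in parallel with the ARE reporter screen. ARE-bla HepG2 cells were exposed to compounds for 16 hrs, and viability was taken from CellTiter-Glo luminescence.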
With `CC(C)=CCCC(C)CCOC=O` (centres undefined) the Potency was active: 54.5 µM.
In the case of `CCCCCCCCOCCCN`, the Potency is reported as active: 54.5 µM.
In the case of `CC(C)c1ccc2c(C(C)C)cc(C(C)C)c(S(=O)(=O)O)c2c1`, the Potency is reported as inconclusive: 70.9 µM [cytotoxic, single point].
For `CCCCCCOc1ccc(N)cc1`, the Potency was inconclusive: 61.1 µM [cytotoxic, partial curve, poor fit].
For `NC(N)=NC(=O)Cc1c(Cl)cccc1Cl`, the “viability change, negative = cytotoxic” value was inactive: -18.2%.
In the case of `Cc1nc2sccn2c(=O)c1CCN1CCC(=C(c2ccc(F)cc2)c2ccc(F)cc2)CC1`, the “viability change, negative = cytotoxic” value is reported as inactive: -3.34%.
In the case of `CCC(C)N` (centres undefined), the “viability change, negative = cytotoxic” value is reported as inactive: 6.8%.
For `N=c1nc(N2CCCCC2)cc(N)n1O`, the “viability change, negative = cytotoxic” value was inactive: 1.07%.
For `Cc1ccccc1N=O`, the “viability change, negative = cytotoxic” value was inactive: -0.0295% [at 94.8 µM].
For `O=C(O)[C@H](O)[C@@H](O)[C@H](O)[C@H](O)CO`, the Potency was “inactive”.
With `CC/C=C\CCOC(C)OCC` (centres undefined) the Potency was inconclusive: 0.178 µM [cytotoxic, full curve, poor fit].
With `CCCCCCCCCCCCCCCCOS(=O)(=O)O` the Potency was inconclusive: 37.6 µM [cytotoxic, partial curve, poor fit].
For `O=C(c1ccc(O)cc1)c1ccc(O)c(O)c1O`, the “viability change, negative = cytotoxic” value was inactive: 0.914% [at 94.8 µM].
